From paper PMC8586658 (Cancer Science, 2021)

Key:
[1] = target: T1, mouse IL‐2Rα on 293T cells (293Tα) (mouse, UniProt P01590 22-268); assay: binding of NanoLuc fusion proteins to cells
T1 sequence: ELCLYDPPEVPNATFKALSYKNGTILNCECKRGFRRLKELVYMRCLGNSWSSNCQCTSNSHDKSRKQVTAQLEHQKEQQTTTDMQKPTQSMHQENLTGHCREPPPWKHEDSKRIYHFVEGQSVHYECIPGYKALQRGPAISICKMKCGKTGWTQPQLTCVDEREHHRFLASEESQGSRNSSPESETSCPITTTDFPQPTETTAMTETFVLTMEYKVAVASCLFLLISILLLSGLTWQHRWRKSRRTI

[2] = target: T2, human IL‐2Rα on 293T cells (293Tα) (human, UniProt P01589 22-272); assay: binding of NanoLuc fusion proteins to cells
T2 sequence: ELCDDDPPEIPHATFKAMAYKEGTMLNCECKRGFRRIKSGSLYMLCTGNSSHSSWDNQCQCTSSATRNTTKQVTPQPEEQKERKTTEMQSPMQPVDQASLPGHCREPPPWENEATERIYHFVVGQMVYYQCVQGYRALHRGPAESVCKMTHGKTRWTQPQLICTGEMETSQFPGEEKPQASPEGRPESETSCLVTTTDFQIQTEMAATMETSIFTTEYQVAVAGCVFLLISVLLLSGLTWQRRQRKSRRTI

mouse 293Tα/293T ratio [1]: 1430 ratio | human 293Tα/293T ratio [2]: 1730 ratio
B1: MK‐0, aldesleukin‐type IL‐2 (T3A, C125A) fused to NanoLuc (ligand)
chain: not shown
